In all, about 220,000 compounds went through this assay and about 5,700 (2.6%) were called active. Inconclusive means that the source gave no clear call. Such entries were picked first, then a sample of the others. Calls come from the whole dose curve; as a rule, active = well fitted inhibition curve with a large enough effect; inconclusive = small, poorly fitted or top-dose-only effect; inactive = no such curve, though single readings can be large or run the other way. Potencies of inconclusive entries are doubtful fits and often do not repeat.
These compounds were tested against Lysine-specific demethylase 5B (Homo sapiens) (UniProt Q9UGL1) (assay: Primary screen for KDM5B Histone Demethylases FDH-coupled qHTS). Conditions: FDH-coupled NADH fluorescence (FDH is formaldehyde dehydrogenase); activity change, negative = inhibition: at 57.7 µM (top of the series) unless noted.
Sequence of UniProt Q9UGL1 (Q9UGL1 whole entry, looked up): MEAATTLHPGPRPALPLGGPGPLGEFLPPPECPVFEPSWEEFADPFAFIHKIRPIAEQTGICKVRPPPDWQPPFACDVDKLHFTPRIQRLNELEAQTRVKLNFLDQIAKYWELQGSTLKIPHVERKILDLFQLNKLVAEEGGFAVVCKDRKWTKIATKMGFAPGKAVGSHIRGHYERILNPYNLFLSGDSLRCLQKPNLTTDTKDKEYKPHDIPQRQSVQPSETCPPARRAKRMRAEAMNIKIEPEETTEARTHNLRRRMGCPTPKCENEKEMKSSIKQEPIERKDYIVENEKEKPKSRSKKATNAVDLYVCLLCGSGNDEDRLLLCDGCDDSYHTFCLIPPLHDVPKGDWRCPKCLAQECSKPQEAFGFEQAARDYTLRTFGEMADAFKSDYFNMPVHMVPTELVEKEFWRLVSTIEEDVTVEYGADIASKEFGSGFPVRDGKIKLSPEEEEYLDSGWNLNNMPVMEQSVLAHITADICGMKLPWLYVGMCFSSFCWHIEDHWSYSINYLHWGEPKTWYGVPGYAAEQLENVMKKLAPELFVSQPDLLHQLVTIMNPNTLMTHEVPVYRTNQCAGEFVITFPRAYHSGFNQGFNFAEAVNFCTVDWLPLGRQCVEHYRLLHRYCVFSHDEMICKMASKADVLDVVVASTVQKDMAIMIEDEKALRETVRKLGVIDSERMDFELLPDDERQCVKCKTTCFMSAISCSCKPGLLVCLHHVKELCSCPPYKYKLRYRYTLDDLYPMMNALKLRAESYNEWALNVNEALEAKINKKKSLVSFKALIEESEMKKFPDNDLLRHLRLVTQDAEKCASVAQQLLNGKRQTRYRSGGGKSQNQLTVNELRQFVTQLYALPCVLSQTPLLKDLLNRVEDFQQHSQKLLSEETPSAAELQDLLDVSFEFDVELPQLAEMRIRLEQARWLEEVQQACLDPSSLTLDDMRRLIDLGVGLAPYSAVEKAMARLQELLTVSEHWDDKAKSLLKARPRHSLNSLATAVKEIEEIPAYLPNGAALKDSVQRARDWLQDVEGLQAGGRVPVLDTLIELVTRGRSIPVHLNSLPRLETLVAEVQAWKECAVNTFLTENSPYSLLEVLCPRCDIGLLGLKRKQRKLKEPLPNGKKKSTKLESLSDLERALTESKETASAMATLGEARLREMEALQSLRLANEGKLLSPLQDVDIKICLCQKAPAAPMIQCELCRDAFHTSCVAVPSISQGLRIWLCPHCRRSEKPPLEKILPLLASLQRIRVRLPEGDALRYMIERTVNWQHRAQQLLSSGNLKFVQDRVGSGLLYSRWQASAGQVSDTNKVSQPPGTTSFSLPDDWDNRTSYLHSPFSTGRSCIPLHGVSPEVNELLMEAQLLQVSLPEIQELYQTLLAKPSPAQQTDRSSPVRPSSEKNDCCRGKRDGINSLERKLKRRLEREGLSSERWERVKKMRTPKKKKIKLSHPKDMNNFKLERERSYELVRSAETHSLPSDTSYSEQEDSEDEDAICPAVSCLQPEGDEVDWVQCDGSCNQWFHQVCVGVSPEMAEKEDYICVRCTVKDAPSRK
Summary of the method: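 KDM5BΔAP (200 nM final) in 50 mM HEPES pH 7.5, 0.01% Tween-20 was preincubated 10 min at RT with compound over a concentration range. Substrate mix (H3K4me3 12.5 µM, α-KG 25 µM, Fe²⁺, ascorbate, NAD⁺, FDH) was added, and NADH fluorescence change over 30 min gave dose-response curves.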
Note: nearly all actives have a fitted effect of over 70% in size.
Potency is the fitted concentration of half-maximal effect; tags give direction and shape of the fitted curve.
Throughout, for activity change, negative = inhibition: 0% is about no effect.

Row | SMILES | Potency | activity change, negative = inhibition
1 | Cc1nn(CCC(=O)Nc2ccccc2Br)c(=O)c2nn(-c3ccccc3)c(C)c12 | inconclusive: 28.2 µM [inhibitor, partial curve, poor fit] | –
2 | CCOc1ccc(NC(=O)c2cnn3c2NC(c2ccc(OC)cc2)=CC3c2ccccc2)cc1 (centres undefined) | – | inactive: -10.4%
3 | CCOCCCNC(=O)CSCCCC(=O)Nc1c(C)cc(C)cc1C | – | inactive: -5.81%
4 | CN1CCN(C(=O)CNc2nc(Cl)nc3nc[nH]c23)CC1 | – | inactive: 1.42%
5 | COc1cc(SC)ccc1C(=O)Oc1ccccc1C | – | inactive: -14.5%
6 | O=C1NC[C@@H](CCC(=O)N2CCCCC2)N2C[C@@H](NC(=S)Nc3ccc(Cl)cc3)C[C@@H]12 | inconclusive: 12.6 µM [inhibitor, partial curve] | –
7 | COc1cccc(CNC(=O)CN2C(=O)N(c3cccc(C)c3)S(=O)(=O)c3ccccc32)c1OC | – | inactive: 5.09%
8 | Cc1ccc(-c2cc3c(=O)n(CC(O)c4ccc(C)c(C)c4)ccn3n2)c(C)c1 (centres undefined) | active: 35.5 µM | –
9 | Fc1ccc2oc([C@H]3CCN(CC4CCCCC4)C3)nc2c1 | inconclusive: 31.6 µM [inhibitor, single point] | –
10 | O=C(NCC1CCN(c2cc(-c3ccc(F)cc3)[nH]n2)CC1)c1cc(C2CC2)[nH]n1 | inconclusive: 15.8 µM [inhibitor, partial curve] | –
11 | CC(C)COc1ccc(C(=O)OCC[N+]2(C)CCOCC2)cc1 | – | inactive: -5.42%
12 | N#Cc1cccc(NC(=O)N[C@H]2CO[C@H]3[C@@H]2OC[C@@H]3Nc2nccc(-c3cccc(F)c3)n2)c1 | inconclusive: 28.2 µM [inhibitor, partial curve, poor fit] | –
13 | Cc1ccc(OCC(=O)Nc2ccc3nn(-c4ccc(C)cc4)nc3c2)cc1 | inconclusive: 28.2 µM [inhibitor, partial curve, poor fit] | –
14 | CC1=CC(C)(C)NC(=S)N1c1cc(C)ccc1C | – | inactive: -11.2%
15 | CCNC(=O)[C@@H]1C[C@H](NC(=O)c2cccc(-c3ccc(F)cc3)c2)CN1C | inconclusive: 12.6 µM [inhibitor, partial curve] | –
16 | COc1ccc2c(c1)c1c(c(=O)n(-c3cccc(C)c3)c(=O)n1CC(=O)NCc1ccc(C)cc1)n2C | inconclusive: 5.01 µM [inhibitor, partial curve, poor fit] | –
17 | NC(=O)c1cc(Cl)ccc1OCC(=O)N1CCCCCC1 | – | inactive: 16.2%
18 | Cc1nc(C2CCCN(C(=O)C(C)(C)N)C2)cc(N2CCOCC2)n1 (centres undefined) | inconclusive: 0.631 µM [inhibitor, partial curve, poor fit] | –
19 | COc1ccc2cc(-c3nc(-c4ccccc4F)no3)c(=O)oc2c1 | – | inactive: -42.4%
20 | Cc1ccc(CSc2nc3ccncc3n2Cc2nc(-c3ccccc3C)oc2C)cc1 | inconclusive: 28.2 µM [inhibitor, partial curve, poor fit] | –
21 | O=C(Cn1c(=O)n(Cc2ccc(C(=O)NCc3ccc4c(c3)OCO4)cc2)c(=O)c2ccccc21)Nc1ccccc1F | inconclusive: 25.1 µM [inhibitor, partial curve, poor fit] | –
22 | O=C(CCS(=O)(=O)c1cc(Br)cc2c1N(C(=O)C1CC1)CC2)N1CCN(c2cccc(C(F)(F)F)c2)CC1 | inconclusive: 25.1 µM [inhibitor, partial curve, poor fit] | –

Row | SMILES | Potency | activity change, negative = inhibition
23 | O=C(Cn1ccn2nc(-c3ccccc3)c(CO)c2c1=O)Nc1ccc2c(c1)CCC2 | inconclusive: 35.5 µM [inhibitor, partial curve, poor fit] | –
24 | CC(=O)NNC(=S)NCC(C)C | – | inactive: 0.757%
25 | Cc1ccc(-c2ccc(/C=C/C(=O)c3ccccc3)o2)cc1Cl | inconclusive: 10 µM [inhibitor, partial curve, poor fit] | –
26 | COc1ccc(-c2cc(C(=O)NCCc3ccccc3)c3c(-c4ccc(Cl)cc4)[nH]nc3n2)cc1 | inconclusive: 6.31 µM [inhibitor, partial curve, poor fit] | –
27 | Cc1cc(OCC(=O)NCCCn2ccnc2)c2c(C)cc(=O)oc2c1 | inconclusive: 20 µM [inhibitor, partial curve, poor fit] | –
28 | COc1ccc(CCNC(=O)Cn2ccn3nc4c(c3c2=O)CCCCC4)cc1OC | inconclusive: 35.5 µM [inhibitor, single point] | –
29 | CCS(=O)(=O)Nc1ccc(-c2cn3c(C)csc3n2)cc1 | inconclusive: 25.1 µM [inhibitor, partial curve, poor fit] | –
30 | CCCSc1ncc(Cl)c(C(=O)Nc2ccc(C)cc2C)n1 | – | inactive: -0.103%
31 | CCOC(=O)c1c(-c2ccccc2)oc2ccc(OCc3cccc(Br)c3)cc12 | inconclusive: 7.94 µM [inhibitor, partial curve, poor fit] | –
32 | OC(COc1ccc(Nc2ccccc2)cc1)COc1ccc(Nc2ccccc2)cc1 | inconclusive: 39.8 µM [inhibitor, single point] | –
33 | CCc1ccccc1-n1nc(-c2c(C)nc3scc(CC(=O)NCCOC)n3c2=O)cc1C | inconclusive: 28.2 µM [inhibitor, partial curve, poor fit] | –
34 | CCN(c1cccc(C)c1)S(=O)(=O)c1c(C)nc2sc(C)cn2c1=O | inconclusive: 6.31 µM [inhibitor, partial curve, poor fit] | –
35 | N#Cc1c(/N=C/c2cccc(Br)c2)sc2c1CCCC2 | – | inactive: 2.99%
36 | COCCNCC(=O)Nc1ccc(OC(F)(F)F)cc1 | inconclusive: 15.8 µM [inhibitor, partial curve, poor fit] | –
37 | COCC1CN(C)CC12CCN(C(=O)c1ccc(OC)c(F)c1)CC2 (centres undefined) | inconclusive: 31.6 µM [inhibitor, partial curve, poor fit] | –
38 | COc1cncc(N2CC3(COCC(=O)N(Cc4cccc(OC(F)(F)F)c4)C3)C2)c1 | active: 28.2 µM | –
39 | CCSc1nc2ccccc2c(OCc2cc(C(=O)OC)ccc2OC)c1C(=O)OC | – | inconclusive: -38.1% [inhibitor]
40 | COCC1CN(C2CCC2)CC12CCN(C(=O)c1ccoc1)CC2 (centres undefined) | inconclusive: 12.6 µM [inhibitor, partial curve, poor fit] | –
41 | Cc1cccc(NC(=O)C2CC(=O)N(c3n[nH]c4cccc(F)c34)C2)c1C (centres undefined) | – | inactive: 7.73%
42 | CC1(C)CC(=O)C2=C(C1)NC1=C(C(=O)CC(C)(C)C1)C2c1ccc(C#N)cc1 | inconclusive: 8.91 µM [inhibitor, partial curve, poor fit] | –
43 | O=C1Nc2ccccc2CNC12CCN(CC1CC1)CC2 | inconclusive: 112 µM [inhibitor, partial curve] | –
44 | CCc1cccc2c(C(CC(=O)NCc3ccco3)c3ccc(C)cc3)c[nH]c12 (centres undefined) | active: 28.2 µM | –

Row | SMILES | Potency | activity change, negative = inhibition
45 | O=Cc1cc(Cl)ccc1OC(=O)/C=C/c1ccc(F)cc1 | – | inactive: 5.48%
46 | COc1ccc(-c2nc(C#N)c(NCc3ccccc3)o2)cc1 | inconclusive: 39.8 µM [inhibitor, single point] | –
47 | O=C(NCc1ccccc1)c1cc(C2CC2)nc2ccccc12 | inconclusive: 15.8 µM [inhibitor, partial curve, poor fit] | –
48 | CC1=C(C(=O)Nc2ccccc2)C(c2cccc(C)c2)N2C(CC(=O)NC3CC3)=CSC2=N1 (centres undefined) | – | inactive: -27.7%
49 | CC1CCC2(CC1)OCC(C(=O)NCc1ccco1)N2C(=O)c1ccccc1F (centres undefined) | inconclusive: 25.1 µM [inhibitor, partial curve, poor fit] | –
50 | Cc1ccc(Nc2ccc(N)cc2S(=O)(=O)O)cc1 | inconclusive: 22.4 µM [inhibitor, partial curve, poor fit] | –
51 | Clc1ccccc1CSCc1ccc(-c2nc(-c3ccncc3)no2)o1 | – | inactive: 15.4%
52 | COc1ccccc1CNC(=O)C1CCN(c2nnc(C)c3c(C)n(-c4ccccc4)nc23)CC1 | inconclusive: 12.6 µM [inhibitor, partial curve, poor fit] | –
53 | O=C1CCCC2=C1C(c1ccc(F)cc1)c1c(nc(SCc3ccccc3F)[nH]c1=O)N2 (centres undefined) | inconclusive: 28.2 µM [inhibitor, single point] | –
54 | CCn1cc(CN2CCCCCCNC(=O)[C@@H]3CCC[C@@H]32)cn1 | inconclusive: 8.91 µM [inhibitor, partial curve, poor fit] | –
55 | Cc1ccc2c(C(=O)NC3CCN(C)CC3)cc(NC(=O)C3CCC3)cc2n1 | active: 22.4 µM | –
56 | CCCCCCOc1ccccc1/C=C(\C#N)C(=O)c1ccccc1 | – | inactive: 22.7%
57 | c1ccc(-c2cnc(Nc3ccncc3)c3c2CCO3)cc1 | inconclusive: 39.8 µM [inhibitor, single point] | –
58 | CC(C)CNC(=O)C(C)Sc1nc(-c2ccco2)nc2ccccc12 (centres undefined) | – | inactive: -29.5%
59 | CNC(=O)CCC[C@H]1NC[C@@H]2CC1CN(Cc1ccccc1)C2 | inconclusive: 11.2 µM [inhibitor, partial curve] | –
60 | O=C1CO[C@H]2CCN(Cc3ccccc3)CC[C@@H]2N1CCc1cccnc1 | inconclusive: 8.91 µM [inhibitor, partial curve, poor fit] | –
61 | N#Cc1c(N2CCN(C(=O)C(=O)NCCc3ccccc3)CC2)nc(-c2ccco2)c2c1CCCC2 | inconclusive: 20 µM [inhibitor, partial curve, poor fit] | –
62 | CCCC/C=C1/[C@H](c2ccc(Cl)cc2)N(Cc2ccc3c(c2)OCO3)C2=N[C@H](c3ccccc3)CC(=O)N21 | inconclusive: 25.1 µM [inhibitor, single point] | –
63 | COCCNC(=O)C[C@@H]1C[C@@H](C(C)C)[C@H](CNS(=O)(=O)c2ccc(OC)cc2)C=C1C | active: 22.4 µM | –
64 | COCCCNC(=O)c1ccc(Cn2c(=O)c3cccn3c3cccnc32)cc1 | inconclusive: 39.8 µM [inhibitor, single point] | –
